Test results: PMC10050012
No constants are given. Whether binding was seen depends on the method and setting. For some assays here: Binding seen in cells or lysates may run through a third protein. Some results given as binding are weak or reduced against the parent protein; the word gives no strength.

By UniProt entry, the sequences of proteins in these tests, tags left out. Residues count along the entry.
UniProt P60484: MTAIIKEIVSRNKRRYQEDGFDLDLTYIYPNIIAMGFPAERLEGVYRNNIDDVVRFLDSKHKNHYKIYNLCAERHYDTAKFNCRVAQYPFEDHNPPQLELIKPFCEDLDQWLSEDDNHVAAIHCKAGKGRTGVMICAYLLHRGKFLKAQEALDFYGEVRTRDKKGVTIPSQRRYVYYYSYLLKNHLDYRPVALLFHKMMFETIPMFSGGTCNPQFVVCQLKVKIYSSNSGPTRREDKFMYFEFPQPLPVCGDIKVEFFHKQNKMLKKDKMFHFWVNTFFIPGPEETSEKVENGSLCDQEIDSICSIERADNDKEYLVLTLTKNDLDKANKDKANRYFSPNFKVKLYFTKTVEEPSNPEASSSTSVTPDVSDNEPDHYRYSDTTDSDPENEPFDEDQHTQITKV
UniProt P05107, residues 23-769: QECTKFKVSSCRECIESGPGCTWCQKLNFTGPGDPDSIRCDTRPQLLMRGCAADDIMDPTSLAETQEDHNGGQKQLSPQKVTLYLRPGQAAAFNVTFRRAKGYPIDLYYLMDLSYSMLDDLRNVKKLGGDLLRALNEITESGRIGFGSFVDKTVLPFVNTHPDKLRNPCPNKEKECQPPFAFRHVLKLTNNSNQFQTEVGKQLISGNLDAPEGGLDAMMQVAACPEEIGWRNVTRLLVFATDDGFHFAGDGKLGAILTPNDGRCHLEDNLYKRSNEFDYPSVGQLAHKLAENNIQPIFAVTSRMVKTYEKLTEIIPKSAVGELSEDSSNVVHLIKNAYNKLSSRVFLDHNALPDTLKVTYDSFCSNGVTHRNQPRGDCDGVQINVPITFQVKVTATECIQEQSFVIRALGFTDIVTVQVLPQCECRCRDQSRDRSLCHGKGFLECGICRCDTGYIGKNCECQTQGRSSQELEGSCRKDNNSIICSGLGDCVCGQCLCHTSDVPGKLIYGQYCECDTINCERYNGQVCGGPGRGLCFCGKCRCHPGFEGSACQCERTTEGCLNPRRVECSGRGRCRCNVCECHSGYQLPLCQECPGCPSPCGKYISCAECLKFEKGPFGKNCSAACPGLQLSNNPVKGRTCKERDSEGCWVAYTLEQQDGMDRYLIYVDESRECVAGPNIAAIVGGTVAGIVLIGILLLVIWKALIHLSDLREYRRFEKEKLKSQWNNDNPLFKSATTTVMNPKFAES

Columns and labels:
[1] = target: PTEN (human (endogenous in NB4)) (UniProt P60484); experiment: condition: only cells treated with ATRA + NC9 (30 μM) for 5 days; co-IP; as a1, NB4 WT cells treated with ATRA + NC9 (30 μM, TG2 inhibitor) for 5 days
[2] = target: PTEN (human (endogenous in NB4)) (UniProt P60484); experiment: condition: only cells treated with ATRA + PP2 (20 μM) for 5 days; co-IP; as a1, NB4 WT cells treated with ATRA + PP2 (20 μM, c-SRC inhibitor) for 5 days
[3] = target: CD18 β2-integrin subunit (human (endogenous in NB4)) (UniProt P05107); experiment: co-IP; immunoprecipitation from the plasma membrane fraction (and total cell lysate) of ATRA-treated NB4 WT cells with a polyclonal TG2 antibody and, reciprocally, with antibodies to mTOR, AKT, CD18, p85, PI3K/p110, PTEN and c-SRC; Western blot
[4] = target: PTEN (human (endogenous in NB4)) (UniProt P60484); experiment: as above
[5] = target: PTEN (human (endogenous in NB4)) (UniProt P60484); experiment: far-Western, overlay or dot blot; modified far-western blot with disuccinimidyl suberate (DSS): bait proteins immunoprecipitated from plasma membrane, renatured and incubated with plasma membrane lysates; bound prey detected by a primary antibody; NB4 WT cells with ATRA for 5 days, also for 2 days, and NB4 WT CD18-/- cells; only the target purified

binding [1]: no binding
binding [2]: no binding
binding [3]: binds
binding [4]: binds
binding [5]: binds
B1: transglutaminase 2 (protein, UniProt P21980 1-687)
chain: MAEELVLERCDLELETNGRDHHTADLCREKLVVRRGQPFWLTLHFEGRNYEASVDSLTFSVVTGPAPSQEAGTKARFPLRDAVEEGDWTATVVDQQDCTLSLQLTTPANAPIGLYRLSLEASTGYQGSSFVLGHFILLFNAWCPADAVYLDSEEERQEYVLTQQGFIYQGSAKFIKNIPWNFGQFEDGILDICLILLDVNPKFLKNAGRDCSRRSSPVYVGRVVSGMVNCNDDQGVLLGRWDNNYGDGVSPMSWIGSVDILRRWKNHGCQRVKYGQCWVFAAVACTVLRCLGIPTRVVTNYNSAHDQNSNLLIEYFRNEFGEIQGDKSEMIWNFHCWVESWMTRPDLQPGYEGWQALDPTPQEKSEGTYCCGPVPVRAIKEGDLSTKYDAPFVFAEVNADVVDWIQQDDGSVHKSINRSLIVGLKISTKSVGRDEREDITHTYKYPEGSSEEREAFTRANHLNKLAEKEETGMAMRIRVGQSMNMGSDFDVFAHITNNTAEEYVCRLLLCARTVSYNGILGPECGTKYLLNLNLEPFSEKSVPLCILYEKYRDCLTESNLIKVRALLVEPVINSYLLAERDLYLENPEIKIRILGEPKQKRKLVAEVSLQNPLPVALEGCTFTVEGAGLTEEQKTVEIPDPVEAGEEVKVRMDLLPLHMGLHKLVVNFESDKLKAVKGFRNVIIGPA
